Structures are written as SMILES. Out of some 310,000 compounds screened, about 14,000 (4.5%) showed an effect of 50% or more. Effects have a minus sign here. The list shows a part of the results.
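Further: peak tail current of the secondary pulse compared with the same well before compound.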

In this assay the target is human ether-à-go-go-related gene (hERG) potassium channel (human, UniProt Q12809). Briefly: primary screen, population patch clamp on CHO cells stably expressing hERG.
Chain of human ether-à-go-go-related gene (hERG) potassium channel (Q12809 whole entry, looked up): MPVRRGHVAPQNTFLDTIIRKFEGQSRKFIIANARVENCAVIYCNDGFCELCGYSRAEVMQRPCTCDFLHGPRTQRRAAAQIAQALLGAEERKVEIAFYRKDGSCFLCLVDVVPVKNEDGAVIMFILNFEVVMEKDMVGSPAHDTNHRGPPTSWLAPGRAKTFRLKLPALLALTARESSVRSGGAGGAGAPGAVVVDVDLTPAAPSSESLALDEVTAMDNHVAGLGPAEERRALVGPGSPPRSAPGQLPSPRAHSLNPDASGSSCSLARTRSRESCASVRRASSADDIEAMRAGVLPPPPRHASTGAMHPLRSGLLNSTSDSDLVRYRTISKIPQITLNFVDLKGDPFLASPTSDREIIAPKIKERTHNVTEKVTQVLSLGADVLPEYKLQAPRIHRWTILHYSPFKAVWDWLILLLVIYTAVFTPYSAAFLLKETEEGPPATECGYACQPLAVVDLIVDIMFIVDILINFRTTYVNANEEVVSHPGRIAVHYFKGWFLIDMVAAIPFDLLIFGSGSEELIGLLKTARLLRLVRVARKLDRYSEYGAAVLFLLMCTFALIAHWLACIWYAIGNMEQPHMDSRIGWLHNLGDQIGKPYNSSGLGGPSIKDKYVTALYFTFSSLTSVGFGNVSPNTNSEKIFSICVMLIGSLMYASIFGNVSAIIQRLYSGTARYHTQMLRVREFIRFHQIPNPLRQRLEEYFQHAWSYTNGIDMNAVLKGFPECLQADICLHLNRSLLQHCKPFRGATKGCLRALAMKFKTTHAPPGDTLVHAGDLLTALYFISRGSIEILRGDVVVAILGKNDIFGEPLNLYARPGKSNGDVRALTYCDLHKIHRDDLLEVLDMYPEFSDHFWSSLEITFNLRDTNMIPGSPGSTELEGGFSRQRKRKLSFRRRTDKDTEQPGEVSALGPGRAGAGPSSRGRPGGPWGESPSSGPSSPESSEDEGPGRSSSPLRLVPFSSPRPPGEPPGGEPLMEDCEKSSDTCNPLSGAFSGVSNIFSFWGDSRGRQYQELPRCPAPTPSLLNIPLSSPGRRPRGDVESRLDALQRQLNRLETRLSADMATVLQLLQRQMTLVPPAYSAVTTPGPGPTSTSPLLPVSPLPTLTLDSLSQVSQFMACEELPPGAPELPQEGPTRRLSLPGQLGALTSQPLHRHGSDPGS
As for `CCn1c(SCC(=O)NC(C)C(C)C)nc2cc(S(=O)(=O)N3CCOCC3)ccc21` (stereo not drawn), the “hERG current change (%, negative = inhibition) at 10uM” value was 3.83%.
On to `COc1ccc(-c2csc3ncnc(N4CCN(c5cccc(Cl)c5)CC4)c23)cc1`, for which the “hERG current change (%, negative = inhibition) at 10uM” value stood at 4.71%.
Turning to `O=C1CCCN1CCCNS(=O)(=O)c1ccc(F)cc1F`, the “hERG current change (%, negative = inhibition) at 10uM” value came to 8.77%.
For `Br.CC(Cc1ccc(O)cc1)NCC(O)c1cc(O)cc(O)c1` (stereo not drawn), the “hERG current change (%, negative = inhibition) at 10uM” value turned out to be 8.75%.
The figure for `COc1ccc(/C=N/NC(=O)c2cccc([N+](=O)[O-])c2)cc1OS(=O)(=O)c1ccc(C)cc1` is -16.1%.
The figure for `Cc1ccsc1/C=C1\CCC(C2CCCC2)C1=O` (stereo not drawn) is 6.21%; for `CCC(C)(C(=O)NC1CCCCC1)N(Cc1ccco1)C(=O)c1ccc2c(c1)OCO2` (stereo not drawn) it is -6%; for `Cc1ccc(S(=O)(=O)N(C)CCCC(=O)N2CCCCC2)cc1` it is -4.24%.
For `O=C(NC(Nc1ncc(S(=O)(=O)c2ccc([N+](=O)[O-])cc2)s1)(C(F)(F)F)C(F)(F)F)c1ccc(Cl)cc1`, the “hERG current change (%, negative = inhibition) at 10uM” value is recorded as -11.6%.
Consider `O=C(COc1ccc2c3c(c(=O)oc2c1)CCC3)NC(Cc1ccc(Cl)cc1)C(=O)O` (stereo not drawn), for which the “hERG current change (%, negative = inhibition) at 10uM” value came to 3.55%.
In the case of `Cc1ccccc1Cn1c(=N)n(CC(O)c2ccco2)c2ccccc21.Cl` (stereo not drawn), the “hERG current change (%, negative = inhibition) at 10uM” value is recorded as -59.8%.
Consider `CC(C)CC(c1nnnn1CCc1ccccc1)N1CCC(C(N)=O)CC1` (stereo not drawn), for which the “hERG current change (%, negative = inhibition) at 10uM” value is on record as -1.46%.
With `Cc1ccc(C)c(Nc2nc(N)c3ccccc3n2)c1.Cl`, the “hERG current change (%, negative = inhibition) at 10uM” value is recorded as -24.7%.
As for `COC(=O)CCCCCCCCC(O)CN(C)C` (stereo not drawn), the “hERG current change (%, negative = inhibition) at 10uM” value was found to be 21.8%.
On to `CCN1C(=O)[C@H]2[C@@H](c3ccc(-c4ccc(C(C)=O)cc4)cc3)N3CCCC[C@@]3(C(=O)OC)[C@H]2C1=O.O=C(O)C(F)(F)F`, for which the “hERG current change (%, negative = inhibition) at 10uM” value is 5.59%.
As for `Cc1ccc(C)c(N2CCN(C(=O)c3cc4c(C)nc5ccccc5c4o3)CC2)c1`, the “hERG current change (%, negative = inhibition) at 10uM” value was determined as 0.596%.
For the compound `CN(C)CCCN1CC(=O)N2[C@@H](Cc3c([nH]c4ccccc34)C2(C)C)C1=O`, the “hERG current change (%, negative = inhibition) at 10uM” value is 13.4%.
Consider `CCC(Cc1ccccc1)NC(=O)C1CCN(S(=O)(=O)c2ccc3c(c2)CC(C)N3C(C)=O)CC1` (stereo not drawn), for which the “hERG current change (%, negative = inhibition) at 10uM” value is 1.02%.
For the compound `CC(=O)Nc1ccc(NC(=O)C2(C)CC2(Cl)Cl)cc1` (stereo not drawn), the “hERG current change (%, negative = inhibition) at 10uM” value is given as 13%.
On to `N#CCCN(C(=O)c1cc2c(s1)-c1ccccc1S(=O)(=O)C2)c1ccccc1`, for which the “hERG current change (%, negative = inhibition) at 10uM” value is given as -9.63%.
`Cc1ccc(S(=O)(=O)NCC(=O)N(CC2CCCO2)C(C(=O)NCC2CCCO2)C(C)C)cc1` (stereo not drawn): the “hERG current change (%, negative = inhibition) at 10uM” value amounted to 14.4%.
In the case of `Cc1ccc[n+](CC(=O)Nc2cccc(Cl)c2)c1.[Cl-]`, the “hERG current change (%, negative = inhibition) at 10uM” value is listed as 18.4%.
Consider `CC(OC(=O)CCc1ccccc1)C(=O)Nc1ccc(Cl)cn1` (stereo not drawn), for which the “hERG current change (%, negative = inhibition) at 10uM” value is given as -26.2%.
For `O=C(/C=C/c1ccc(Cl)c(Cl)c1)N1CCOCC1`, the “hERG current change (%, negative = inhibition) at 10uM” value was -1.3%.
Turning to `Cc1cccc(C(=O)NNC(=O)c2ccc(-c3ccccc3)cc2)c1`, the “hERG current change (%, negative = inhibition) at 10uM” value is 15.1%.
In the case of `Cc1occc1C(=O)Nc1nccs1`, the “hERG current change (%, negative = inhibition) at 10uM” value was 11.5%.
The figure for `COc1ccc(C2(C)NC(=O)N(CC(=O)c3cc(C)n(C4CC4)c3C)C2=O)cc1OC` (stereo not drawn) is 2.99%; for `CN(CC(=O)Nc1ccccc1N1CCOCC1)S(=O)(=O)c1ccc(F)cc1` it is -37.6%.
On to `Cc1cc(C)n(-c2nc(Nc3ccccc3)nc(-n3nc(C)cc3C)n2)n1`, for which the “hERG current change (%, negative = inhibition) at 10uM” value worked out at 15.6%.
On to `Cc1nc(Cl)c(C(=O)NCCC(C)C)c(C)c1[N+](=O)[O-]`, for which the “hERG current change (%, negative = inhibition) at 10uM” value is -16.6%.
For `COC(=O)C1=CNC=C(C(=O)OC)C1c1cccc(OC)c1`, the “hERG current change (%, negative = inhibition) at 10uM” value stood at 4.39%.
Take `Cc1ccc(C)n1NC(=O)c1ccccc1O`: the “hERG current change (%, negative = inhibition) at 10uM” value is listed as 0.839%.
On to `C=CCSc1ncc(C(=O)OCC)c(N)n1`, for which the “hERG current change (%, negative = inhibition) at 10uM” value was -11.5%.
In the case of `COC(=O)N(c1ccccc1)P(=O)(Oc1ccccc1)Oc1ccccc1`, the “hERG current change (%, negative = inhibition) at 10uM” value was -1.67%.
On to `O=C(CC1(O)C(=O)Nc2ccccc21)c1cccc(Br)c1` (stereo not drawn), for which the “hERG current change (%, negative = inhibition) at 10uM” value is listed as -0.815%.
Consider `O=C(CN1C(=O)c2ccccc2C1=O)OC(C(=O)c1ccc(Cl)cc1)c1ccccc1` (stereo not drawn), for which the “hERG current change (%, negative = inhibition) at 10uM” value worked out at 9.99%.
Turning to `CCC/C(O)=C1\C(=O)CC(C)(C)CC1=Nc1cccc([N+](=O)[O-])c1`, the “hERG current change (%, negative = inhibition) at 10uM” value is -30.1%.
With `Oc1ccc(Br)cc1/C=N/Nc1ncc(-c2ccccc2)cn1`, the “hERG current change (%, negative = inhibition) at 10uM” value is listed as 38.9%.
As to `CCn1nc(NS(=O)(=O)c2ccccc2[N+](=O)[O-])c2cc3cccc(C)c3nc21`, the “hERG current change (%, negative = inhibition) at 10uM” value is recorded as -5.17%.
As to `COc1ccccc1N(Cc1ccccc1)S(=O)(=O)c1cc(C(=O)O)ccc1Cl`, the “hERG current change (%, negative = inhibition) at 10uM” value is 16.8%.
As to `CCc1nnc(NS(=O)(=O)c2ccc(N=Cc3c(C)[nH]n(-c4cccc(Cl)c4)c3=O)cc2)s1`, the “hERG current change (%, negative = inhibition) at 10uM” value came out at 10.4%.
Turning to `COc1ccc(-c2nc(C#N)c(NCCc3ccccc3)o2)cc1OC`, the “hERG current change (%, negative = inhibition) at 10uM” value is on record as -11.1%.

For the origin of these results see article PMC4336329 (PLoS ONE, 2015).
